# Source: the supplement of paper PMC8728848
# The list shows a part of the results.
# B1: MGL2 (Mus musculus), Q8JZN1 (protein)
# chain: MTMRYENFQNLEREEKNQEMRNGDKKGGMESPKFALIPSQSFLWRILSWTHLLLFSLGLSLLLLVVISVIGSQNSQLRRDLGTLRAILDNTTSKIKAEFQSLDSRADNFEKGISSLKVDVEDHRQELQAGRDLSQKVTSLESTLEKREQALKTDLSDLTDHVQQLETDLKALTCQLANLKNNGSEVACCPLHWTEHEGSCYWFSESEKSWPEADKYCRLENSHLVVVNSLEEQNFLQNRLANVLSWMGLTDQNGPWRWVDGTDFDKGFKNWRPLQPDNWHGHMLGGGEDCAHFSYDGRWNDDVCQRHYHWICETELGKASSAHSPQLIASVP
# Tests used:
# Assay in all cases: glycan array binding signal (z-score within array); higher = stronger binding
# Conditions in all cases: glycan notation: IUPAC condensed, linker removed
# [1] = molecular target: GlcNAc(a1-6)Gal(b1-4)GlcNAc
# In short: (§1)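 Arrays were curated from the Consortium for Functional Glycomics database, 3228 in total, and kept only where the protein sequence was available. Binding is expressed as a within-array Z-score. This score was averaged across arrays of the same protein sequence at different concentrations or buffers and across linkers, and negative values can be read as non-binding.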
# [2] = molecular target: GlcNAc(b1-2)Gal(b1-3)GalNAc
# In short: as §1
# [3] = molecular target: GlcNAc(b1-2)Man(a1-3)[GlcNAc(b1-2)Man(a1-6)]Man(b1-4)GlcNAc(b1-4)GlcNAc
# In short: as §1
# [4] = molecular target: GlcNAc(b1-2)Man(a1-3)[GlcNAc(b1-2)Man(a1-6)]Man(b1-4)GlcNAc(b1-4)[Fuc(a1-6)]GlcNAc
# In short: as §1
# [5] = molecular target: GlcNAc(b1-2)Man(a1-3)[GlcNAc(b1-4)][GlcNAc(b1-2)Man(a1-6)]Man(b1-4)GlcNAc(b1-4)GlcNAc
# In short: as §1
# [6] = molecular target: GlcNAc(b1-2)Man(a1-3)[GlcNAc(b1-4)][GlcNAc(b1-2)Man(a1-6)]Man(b1-4)GlcNAc(b1-4)[Fuc(a1-6)]GlcNAc
# In short: as §1
# [7] = molecular target: GlcNAc(b1-2)[GlcNAc(b1-4)]Man(a1-3)[GlcNAc(b1-2)Man(a1-6)]Man(b1-4)GlcNAc(b1-4)GlcNAc
# In short: as §1
# [8] = molecular target: GlcNAc(b1-2)[GlcNAc(b1-4)]Man(a1-3)[GlcNAc(b1-4)][GlcNAc(b1-2)Man(a1-6)]Man(b1-4)GlcNAc(b1-4)GlcNAc
# In short: as §1
# [9] = molecular target: GlcNAc(b1-2)[GlcNAc(b1-4)]Man(a1-3)[GlcNAc(b1-4)][GlcNAc(b1-2)[GlcNAc(b1-6)]Man(a1-6)]Man(b1-4)GlcNAc(b1-4)GlcNAc
# In short: as §1
# [10] = molecular target: GlcNAc(b1-2)[GlcNAc(b1-4)]Man(a1-3)[GlcNAc(b1-4)][GlcNAc(b1-2)[GlcNAc(b1-6)]Man(a1-6)]Man(b1-4)GlcNAc(b1-4)[Fuc(a1-6)]GlcNAc
# In short: as §1
# [11] = molecular target: GlcNAc(b1-2)[GlcNAc(b1-6)]Man(a1-6)[GlcNAc(b1-2)Man(a1-3)]Man(b1-4)GlcNAc(b1-4)GlcNAc
# In short: as §1
# [12] = molecular target: GlcNAc(b1-2)[GlcNAc(b1-6)]Man(a1-6)[GlcNAc(b1-2)Man(a1-3)]Man(b1-4)GlcNAc(b1-4)[Fuc(a1-6)]GlcNAc
# In short: as §1
# [13] = molecular target: GlcNAc(b1-2)[GlcNAc(b1-6)]Man(a1-6)[GlcNAc(b1-4)][GlcNAc(b1-2)Man(a1-3)]Man(b1-4)GlcNAc(b1-4)GlcNAc
# In short: as §1
# [14] = molecular target: GlcNAc(b1-3)Fuc
# In short: as §1
# [15] = molecular target: GlcNAc(b1-3)Gal
# In short: as §1
# [16] = molecular target: GlcNAc(b1-3)Gal(b1-3)GalNAc
# In short: as §1
# [17] = molecular target: GlcNAc(b1-3)Gal(b1-4)Glc
# In short: as §1
# [18] = molecular target: GlcNAc(b1-3)Gal(b1-4)GlcNAc
# In short: as §1
# [19] = molecular target: GlcNAc(b1-3)Gal(b1-4)GlcNAc(b1-2)Man(a1-3)[GlcNAc(b1-3)Gal(b1-4)GlcNAc(b1-2)Man(a1-6)]Man(b1-4)GlcNAc(b1-4)GlcNAc
# In short: as §1
# [20] = molecular target: GlcNAc(b1-3)Gal(b1-4)GlcNAc(b1-2)Man(a1-3)[GlcNAc(b1-3)Gal(b1-4)GlcNAc(b1-2)Man(a1-6)]Man(b1-4)GlcNAc(b1-4)[Fuc(a1-6)]GlcNAc
# In short: as §1
# [21] = molecular target: GlcNAc(b1-3)Gal(b1-4)GlcNAc(b1-2)[GlcNAc(b1-3)Gal(b1-4)GlcNAc(b1-6)]Man(a1-6)[GlcNAc(b1-3)Gal(b1-4)GlcNAc(b1-2)Man(a1-3)]Man(b1-4)GlcNAc(b1-4)GlcNAc
# In short: as §1
# [22] = molecular target: GlcNAc(b1-3)Gal(b1-4)GlcNAc(b1-3)Gal(b1-4)GlcNAc
# In short: as §1
# [23] = molecular target: GlcNAc(b1-3)Gal(b1-4)GlcNAc(b1-3)Gal(b1-4)GlcNAc(b1-2)Man(a1-3)[GlcNAc(b1-3)Gal(b1-4)GlcNAc(b1-3)Gal(b1-4)GlcNAc(b1-2)Man(a1-6)]Man(b1-4)GlcNAc(b1-4)GlcNAc
# In short: as §1
# [24] = molecular target: GlcNAc(b1-3)Gal(b1-4)GlcNAc(b1-3)Gal(b1-4)GlcNAc(b1-2)Man(a1-3)[GlcNAc(b1-3)Gal(b1-4)GlcNAc(b1-3)Gal(b1-4)GlcNAc(b1-2)Man(a1-6)]Man(b1-4)GlcNAc(b1-4)[Fuc(a1-6)]GlcNAc
# In short: as §1
# [25] = molecular target: GlcNAc(b1-3)Gal(b1-4)GlcNAc(b1-3)Gal(b1-4)GlcNAc(b1-2)[GlcNAc(b1-3)Gal(b1-4)GlcNAc(b1-3)Gal(b1-4)GlcNAc(b1-6)]Man(a1-6)[GlcNAc(b1-3)Gal(b1-4)GlcNAc(b1-3)Gal(b1-4)GlcNAc(b1-2)Man(a1-3)]Man(b1-4)GlcNAc(b1-4)[Fuc(a1-6)]GlcNAc
# In short: as §1
# [26] = molecular target: GlcNAc(b1-3)Gal(b1-4)GlcNAc(b1-3)Gal(b1-4)GlcNAc(b1-3)Gal(b1-4)GlcNAc(b1-2)Man(a1-3)[GlcNAc(b1-3)Gal(b1-4)GlcNAc(b1-3)Gal(b1-4)GlcNAc(b1-3)Gal(b1-4)GlcNAc(b1-2)Man(a1-6)]Man(b1-4)GlcNAc(b1-4)GlcNAc
# In short: as §1
# [27] = molecular target: GlcNAc(b1-3)Gal(b1-4)GlcNAc(b1-3)Gal(b1-4)GlcNAc(b1-3)Gal(b1-4)GlcNAc(b1-2)Man(a1-3)[GlcNAc(b1-3)Gal(b1-4)GlcNAc(b1-3)Gal(b1-4)GlcNAc(b1-3)Gal(b1-4)GlcNAc(b1-2)Man(a1-6)]Man(b1-4)GlcNAc(b1-4)[Fuc(a1-6)]GlcNAc
# In short: as §1
# [28] = molecular target: GlcNAc(b1-3)Gal(b1-4)GlcNAc(b1-3)Gal(b1-4)GlcNAc(b1-3)Gal(b1-4)GlcNAc(b1-2)[GlcNAc(b1-3)Gal(b1-4)GlcNAc(b1-3)Gal(b1-4)GlcNAc(b1-3)Gal(b1-4)GlcNAc(b1-6)]Man(a1-6)[GlcNAc(b1-3)Gal(b1-4)GlcNAc(b1-3)Gal(b1-4)GlcNAc(b1-3)Gal(b1-4)GlcNAc(b1-2)Man(a1-3)]Man(b1-4)GlcNAc(b1-4)[Fuc(a1-6)]GlcNAc
# In short: as §1
# [29] = molecular target: GlcNAc(b1-3)Gal(b1-4)GlcNAc(b1-3)Gal(b1-4)GlcNAc(b1-3)Gal(b1-4)GlcNAc(b1-3)Gal(b1-4)GlcNAc(b1-2)Man(a1-3)[GlcNAc(b1-3)Gal(b1-4)GlcNAc(b1-3)Gal(b1-4)GlcNAc(b1-3)Gal(b1-4)GlcNAc(b1-3)Gal(b1-4)GlcNAc(b1-2)Man(a1-6)]Man(b1-4)GlcNAc(b1-4)GlcNAc
# In short: as §1
# [30] = molecular target: GlcNAc(b1-3)Gal(b1-4)GlcNAc(b1-3)Gal(b1-4)GlcNAc(b1-3)Gal(b1-4)GlcNAc(b1-3)Gal(b1-4)GlcNAc(b1-2)Man(a1-3)[GlcNAc(b1-3)Gal(b1-4)GlcNAc(b1-3)Gal(b1-4)GlcNAc(b1-3)Gal(b1-4)GlcNAc(b1-3)Gal(b1-4)GlcNAc(b1-2)Man(a1-6)]Man(b1-4)GlcNAc(b1-4)[Fuc(a1-6)]GlcNAc
# In short: as §1
# [31] = molecular target: GlcNAc(b1-3)Gal(b1-4)GlcNAc(b1-3)Gal(b1-4)GlcNAc(b1-3)Gal(b1-4)GlcNAc(b1-3)Gal(b1-4)GlcNAc(b1-2)[GlcNAc(b1-3)Gal(b1-4)GlcNAc(b1-3)Gal(b1-4)GlcNAc(b1-3)Gal(b1-4)GlcNAc(b1-3)Gal(b1-4)GlcNAc(b1-6)]Man(a1-6)[GlcNAc(b1-3)Gal(b1-4)GlcNAc(b1-3)Gal(b1-4)GlcNAc(b1-3)Gal(b1-4)GlcNAc(b1-3)Gal(b1-4)GlcNAc(b1-2)Man(a1-3)]Man(b1-4)GlcNAc(b1-4)[Fuc(a1-6)]GlcNAc
# In short: as §1
# [32] = molecular target: GlcNAc(b1-3)Gal(b1-4)GlcNAc(b1-3)Gal(b1-4)GlcNAc(b1-3)GalNAc
# In short: as §1
# [33] = molecular target: GlcNAc(b1-3)Gal(b1-4)GlcNAc(b1-3)GalNAc
# In short: as §1
# [34] = molecular target: GlcNAc(b1-3)Gal(b1-4)GlcNAc(b1-3)[GlcNAc(b1-3)Gal(b1-4)GlcNAc(b1-3)]GalNAc
# In short: as §1
# [35] = molecular target: GlcNAc(b1-3)Gal(b1-4)GlcNAc(b1-6)[Gal(b1-3)]GalNAc
# In short: as §1
# [36] = molecular target: GlcNAc(b1-3)Gal(b1-4)GlcNAc(b1-6)[GlcNAc(b1-3)Gal(b1-3)]GalNAc
# In short: as §1
# [37] = molecular target: GlcNAc(b1-3)Gal(b1-4)GlcNAc(b1-6)[GlcNAc(b1-3)]Gal(b1-4)GlcNAc
# In short: as §1
binder,measurement,setting,value
B1,glycan array binding signal (z-score),[1],-0.051
same,glycan array binding signal (z-score),[2],-0.302
same,glycan array binding signal (z-score),[3],-0.193
same,glycan array binding signal (z-score),[4],0.12
same,glycan array binding signal (z-score),[5],-0.235
same,glycan array binding signal (z-score),[6],-0.149
same,glycan array binding signal (z-score),[7],-0.161
same,glycan array binding signal (z-score),[8],-0.084
same,glycan array binding signal (z-score),[9],-0.124
same,glycan array binding signal (z-score),[10],-0.257
same,glycan array binding signal (z-score),[11],-0.237
same,glycan array binding signal (z-score),[12],-0.101
same,glycan array binding signal (z-score),[13],-0.185
same,glycan array binding signal (z-score),[14],-0.15
same,glycan array binding signal (z-score),[15],-0.118
same,glycan array binding signal (z-score),[16],-0.181
same,glycan array binding signal (z-score),[17],-0.123
same,glycan array binding signal (z-score),[18],-0.048
same,glycan array binding signal (z-score),[19],-0.089
same,glycan array binding signal (z-score),[20],0.007
same,glycan array binding signal (z-score),[21],-0.106
same,glycan array binding signal (z-score),[22],-0.096
same,glycan array binding signal (z-score),[23],0.234
same,glycan array binding signal (z-score),[24],-0.043
same,glycan array binding signal (z-score),[25],-0.164
same,glycan array binding signal (z-score),[26],-0.168
same,glycan array binding signal (z-score),[27],0.222
same,glycan array binding signal (z-score),[28],-0.137
same,glycan array binding signal (z-score),[29],0.037
same,glycan array binding signal (z-score),[30],-0.044
same,glycan array binding signal (z-score),[31],-0.062
same,glycan array binding signal (z-score),[32],-0.263
same,glycan array binding signal (z-score),[33],-0.124
same,glycan array binding signal (z-score),[34],-0.191
same,glycan array binding signal (z-score),[35],-0.047
same,glycan array binding signal (z-score),[36],-0.188
same,glycan array binding signal (z-score),[37],-0.243
